The full ranking holds about 33,000 sequences; the median of “E-score (-0.5 to 0.5)” is about -0.035, and the highest 2% start at about 0.35. Some of the results follow.
target: T1, Pdr3 (UniProt P33200); assay: PBM E-score (8-mer binding enrichment) (E-score (-0.5 to 0.5)); higher = stronger / more preferred TF binding; most listed sequences are background and not binding sites; details: protein concentration: 200 nM; construct: GST-full length
T1 sequence: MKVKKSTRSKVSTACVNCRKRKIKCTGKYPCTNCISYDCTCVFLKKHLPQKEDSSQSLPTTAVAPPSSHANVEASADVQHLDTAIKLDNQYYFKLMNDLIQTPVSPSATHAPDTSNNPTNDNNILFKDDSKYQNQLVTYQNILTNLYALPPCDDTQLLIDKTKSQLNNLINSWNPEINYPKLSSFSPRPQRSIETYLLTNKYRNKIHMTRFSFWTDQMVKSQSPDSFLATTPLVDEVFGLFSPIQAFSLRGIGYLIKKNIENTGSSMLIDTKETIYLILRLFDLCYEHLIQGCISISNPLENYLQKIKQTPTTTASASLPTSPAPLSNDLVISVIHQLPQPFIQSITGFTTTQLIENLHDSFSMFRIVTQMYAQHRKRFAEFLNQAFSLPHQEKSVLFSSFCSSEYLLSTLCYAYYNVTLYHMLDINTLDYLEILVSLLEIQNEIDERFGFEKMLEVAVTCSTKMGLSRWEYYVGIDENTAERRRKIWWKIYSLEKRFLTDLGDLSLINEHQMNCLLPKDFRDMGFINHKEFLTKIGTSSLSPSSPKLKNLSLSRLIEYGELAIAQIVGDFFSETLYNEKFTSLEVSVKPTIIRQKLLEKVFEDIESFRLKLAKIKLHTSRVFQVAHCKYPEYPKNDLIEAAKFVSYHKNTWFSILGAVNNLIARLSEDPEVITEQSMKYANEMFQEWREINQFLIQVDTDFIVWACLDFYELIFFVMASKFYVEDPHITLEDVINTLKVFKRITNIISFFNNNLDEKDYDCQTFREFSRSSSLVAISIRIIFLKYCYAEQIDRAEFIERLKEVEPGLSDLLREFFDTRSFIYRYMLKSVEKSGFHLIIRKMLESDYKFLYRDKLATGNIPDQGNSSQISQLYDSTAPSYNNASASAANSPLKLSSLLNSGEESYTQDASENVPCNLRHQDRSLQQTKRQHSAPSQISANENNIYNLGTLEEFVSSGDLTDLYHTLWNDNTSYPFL
Summary of the method: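 GST-tagged yeast TFs (full-length or DNA-binding domain) were made by PURExpress in vitro transcription/translation and applied at about 100-200 nM to universal all-10-mer Agilent arrays. The arrays were made double-stranded by primer extension, on fresh or once-stripped slides. Bound protein was detected with fluorescent anti-GST, and scans were normalised with masliner. Each ungapped eight-base word, pooled with its reverse complement, received an E-score (modified Wilcoxon-Mann-Whitney statistic) from the Universal PBM Analysis Suite.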

| Sequence | PBM E-score |
| --- | --- |
| CCCAATCC | 0.0182 |
| GGAGACAA | 0.114 |
| CTTTCCTC | -0.162 |
| GCGACCCA | 0.0349 |
| CCCCCCGC | -0.0608 |
| GGCAGGCC | 0.0687 |
| GCTGTGCA | -0.104 |
| CAAAGGTG | -0.16 |
| GGCCAGCA | 0.0963 |
| CAAGGGAG | 0.00978 |
| AAGCCGGT | 0.199 |
| GCGGGAGC | 0.134 |
| ATCCCCAT | 0.0612 |
| ATGTATGC | 0.0813 |
| CCGTACGC | 0.063 |
| ATCTAATA | -0.07 |
| CCCCATCA | -0.0832 |
| CAGCTATC | -0.0475 |
| ACTAGACA | -0.00213 |
| CGTAGATC | 0.0568 |
| TATTGTGA | -0.091 |
| AGCTTCGC | -0.162 |

| Sequence | PBM E-score |
| --- | --- |
| CGTCCTAG | -0.0411 |
| AAAGACTA | -0.113 |
| ACGAAACG | 0.0629 |
| CACTCAAC | -0.0691 |
| GGTGGATA | -0.0607 |
| TAGATAAA | -0.0298 |
| CGCTCGAA | -0.024 |
| GACAAGTA | 0.00093 |
| ACAAACCG | 0.0143 |
| AAACCACA | -0.0401 |
| AGAGCTTC | 0.0657 |
| AGGTCCTG | -0.0403 |
| CCGTTTTA | 0.223 |
| CCAATTGG | -0.116 |
| GACTAACC | -0.2 |
| GCTGCTTA | -0.0871 |
| ACATAGTG | 0.0389 |
| ATTCACTG | -0.172 |
| AGCGTGCA | 0.15 |
| CTAATGGC | -0.0791 |
| CGGTGGGA | 0.119 |
| CCCACAAC | -0.0955 |

| Sequence | PBM E-score |
| --- | --- |
| ATAGGCCA | 0.113 |
| CACTCGCA | 0.0332 |
| AAAACTCT | -0.109 |
| AGACGTCC | -0.143 |
| ATCTGAAA | -0.0697 |
| CCCTGTAG | -0.0901 |
| CACCGGGG | 0.0593 |
| GATACTGC | 0.173 |
| CTTATAGA | -0.104 |
| TAAGTCAA | -0.303 |
| GACAATCC | 0.207 |
| AAGCAAGA | -0.234 |
| ACCATTGA | -0.174 |
| AATCAGTC | 0.0138 |
| CAGACCGC | 0.118 |
| ACTATCAG | -0.184 |
| CACATTCA | -0.021 |
| AGATCTCG | 0.0171 |
| CCAAAAAC | 0.13 |
| CAATTGGA | -0.073 |
| ATGGTTTC | 0.0245 |
| ACCGGGCG | 0.0259 |

| Sequence | PBM E-score |
| --- | --- |
| ATGCTAGC | 0.0707 |
| AGTACTGA | -0.0379 |
| CGAATAAG | -0.0661 |
| CAACACGA | 0.00758 |
| CAAGTCCA | -0.167 |
| AACGCAAG | -0.127 |
| CGGCCCGA | 0.247 |
| CAACCCCC | -0.326 |
| ACCACGCC | -0.107 |
| GCCTACGA | -0.0387 |
| TCGACCGA | 0.0776 |
| GTATCGTA | -0.0613 |
| AAAATGAC | 0.0831 |
| ACCCTCGA | -0.0969 |
| GTACAAGA | -0.173 |
| AGCTGTTA | -0.253 |
| AGAACCCT | -0.171 |
| CAAATAGA | -0.00068 |
| CTCCTAGA | -0.222 |
| AAGCTGTA | -0.0433 |

From the supplement of paper PMC3334620
